Assay results reported in US10413607B2, “Antibody specifically binding to ErbB3 and use thereof” (ISU ABXIS CO., LTD., priority 2015, dated 2019).

B1: 442S10: modified anti-ErbB3 antibody from lead antibody 442P (CDR mutagenesis) (antibody, V domains shown)
VH: EVQLLESGGGLVQPGGSLRLSCAASGFTFSDYDMSWVRQAPGKGLEWVSSIYPDSGSTYYADSVQGRFTISRDNSKNTLYLQMNSLRAEDTAVYYCAKDRHMWPEGPFDYWGQGTLVTVSS
VL: QSVLTQPPSASGTPGQRVTISCSGSSSNIGSNSVSWYQQLPGTAPKLLIYSDNHRPSGVPDRFSGSKSGTSASLAISGLRSEDEADYYCAAWDSSLSGYVFGGGTKLTVLG
modifications: Heavy chain variable region of antibody 442S10; Light chain variable region of antibody 442S10
B2: 442S4: modified anti-ErbB3 antibody from lead antibody 442P (CDR mutagenesis) (antibody, V domains shown)
VH: B1 VH with Y52E, S55F, T58S, Q65R, R100L, W103G
VL: B1 VL
modifications: Heavy chain variable region of antibody 442S4; Light chain variable region of antibody 442S4
B3: 442S5: modified anti-ErbB3 antibody from lead antibody 442P (CDR mutagenesis) (antibody, V domains shown)
VH: B1 VH with S50I, Y52E, T58I, R100L, W103G
VL: B1 VL
modifications: Heavy chain variable region of antibody 442S5; Light chain variable region of antibody 442S5
B4: 442M7: modified anti-ErbB3 antibody from lead antibody 442P (CDR mutagenesis) (antibody, V domains shown)
VH: B1 VH with S50T, Y52E, G66S, R100L, W103G
VL: B1 VL
modifications: Heavy chain variable region of antibody 442M7; Light chain variable region of antibody 442M7
B5: 442S2: modified anti-ErbB3 antibody from lead antibody 442P (CDR mutagenesis) (antibody, V domains shown)
VH: B1 VH with Y59D, R100L, W103G
VL: B1 VL
modifications: Heavy chain variable region of antibody 442S2; Light chain variable region of antibody 442S2

What follows are molecules tested against T1, recombinant human ErbB3 protein (Homo sapiens, UniProt P21860) (assay: Binding affinity of anti-ErbB3 antibody to human ErbB3 protein (Octet QK384)). Details: immobilized human ErbB3; binding phase about 900 seconds.
T1 construct: purchased R&D systems
Method: In particular, the binding affinities of the anti-ErbB3 antibodies to the recombinant human ErbB3 protein (R&D systems) and the antigen-antibody interactive dynamics were measured using an Octet® QK384 system (Pall Life Sciences). After activation of carboxyl groups in 20 mM of 1-ethyl-3-(3-dimethylaminopropyl)carbodiimide hydrochloride (EDC) and 40 mM of N-hydroxysulfosuccinimide (sulfo-NHS) solution on an AR2G sensor (ForteBio), 10 μg/mL of human ErbB3 protein solution diluted with 10 mM of sodium acetate (pH 4.0) (ForteBio) was added to immobilize human ErbB3 protein onto the AR2G sensor. The AR2G sensor to which the human ErbB3 protein was immobilized was treated with 1 M of ethanolamine (ForteBio) to inactivate the remaining unreacted carboxyl groups.

| Molecule | ka (association constant) [M⁻¹ s⁻¹] |
| --- | --- |
| B1 | 814000 |
| B2 | 1.48e+06 |
| B3 | 1.57e+06 |
| B4 | 1.56e+06 |
| B5 | 1.17e+06 |

Same assay, conditions: immobilized human ErbB3; dissociation phase about 1200 seconds

| Molecule | kd (dissociation constant) [s⁻¹] |
| --- | --- |
| B1 | 9.29e-05 |
| B2 | 5.47e-05 |
| B3 | 2.74e-05 |
| B4 | 4.55e-05 |
| B5 | 8.28e-05 |

Residue numbers refer to the chain shown, from its start.
